# The supplement of paper PMC12632987
# In all, about 4,500 sequences were measured (“median log2 fold change of GCK-ALFA target abundance (FLAG IP / Myc IP barcode read proportion)”: median about 0.078, lowest 2% from about -0.6 on). This is one part of the list.
# B1: GBRAP_52_5999 (protein)
# chain: AEARIAAVAEALVAAVLAGDEAGLRALLREAAATLTPEEIVAMVARATRLLARDPRATDEDLRRFIDTVEEVLEEAGQPDEVRADVTGAIARALAEAEAE
# B2: GBRAP_160_4719 (protein)
# chain: SAAVERAIEAVEEAIEEVLELRPEVSAEELANAADTIIGSEILELIEEGELNEELEEALDEIRDELVATILATGDKPREEFEKALKEVLEEAKKRLEALS
# B3: GBRAP_125_3070 (protein)
# chain: PSAEALANLATLARALGFSDSEVAEAVAIAAASSIKQTLVAIALAEDAEELADAVEKLTEAQAEQLLAQVAAELAAHPDLTPEEVLARALELANALVAAA
# B4: GBRAP_45_5805 (protein)
# chain: SAEKQKAYEEALKKLEEAIKEAEKLKKLDPEFFTKLKKRLEELLKRLKEHKNDAAAIEEIAKELEALLKEALANPKASGELLEALLEAANKVWELGELLK
# B5: GBRAP_74_6544 (protein)
# chain: NAARAAALIETLETGSPEERRATLESLPLDFSTEDLKRLLLAVAREAQRAAAAGDEALLEAATDALVRLYDRLAGEPLSPETDAALVAALAAAVEAEKKR
# B6: GBRAP_52_6347 (protein)
# chain: MEERMRKLAEELVELVEAGRLDEARALAAEIVATLSDEEIEMLFKELARMAKEATPERAEAILEAAEILADEMIAAGRDEYLASGYLADVGKAVYENLQK
# B7: GBRAP_160_4274 (protein)
# chain: SEELEELIKEVKESKEEILKLVDEISPEEVKVFAVTELGSHLLEAIELGVVSDEEEDELGEIIDELEEELEKAKNASPEEIKKIIKEHYDKFIEILEKSK
# B8: GBRAP_83_6964 (protein)
# chain: MEKITVATTADHIDSAIDAAKDLATEEGYEVTVELIGSPEEVLASAEKVAKALKDIPNVEIRAAVENVRPEEAEELKKRLAEIGEKYGLKVEVDYDIVEP
# B9: GBRAP_128_3235 (protein)
# chain: MDPELKARVDELIEKIINGDVAEAAAATAELVALMGEVSLEEAEEIAERLIEALEKLTVEKLETVADTIRANRGTLDPEKANLALEVEIEALNRAEELEE
# B10: GBRAP_52_6331 (protein)
# chain: SHEEVEKMAEELYKAIVAGKEEEAKKLAEEMVETLSSEEILEAARIVAERVAKEGDEVKVRAAEVFEYLAELVEEKRGDERTAAEILGIYATTLYAAEQA
# B11: GBRAP_160_4077 (protein)
# chain: SEETEELKKEIKELFEEAVEWMKEEDYERRVAIARVMAGDVLMLVFEDPKMSDEQEEEVDETLDATVAEIEANPNISDEELAKLLKETAEKVIEIVEKAD
# B12: GBRAP_11_2797 (protein)
# chain: KKEKLEKAYELAEKLAELLKKLIEEGVDNEELLKKIEEALKELEKLAKEYLDKGLQKLVKIAKELFEEIKKNPEKALEYAELALATIRVLAGNIKLEIEE
# B13: GBRAP_160_4227 (protein)
# chain: DEVVERLVEIFRETFLEALELIEGETPEERQVILDVAVGEVILEVEEEEGATDEMVEVVDEKAEELAKELLAARDATPEEKRKLIEEKAEELRKELEKIK
# B14: GBRAP_80_6849 (protein)
# chain: AEEKLEKAKAELIELLPEAKETIEELVKLALELGVSLEDITELLEALAELAKKDKELAKELLEELLEEMKELKEEGDKEGARAVVRGYAGEALLLAEELE
# B15: GBRAP_14_3855 (protein)
# chain: KEALIKAVDETAADAKEFAAEVAPEHAAEIGALIDELAAKIKEKIKKENLNKDEVAELVDKAADELGAFMAEKGYMSADEIAAFKAHVINTALLALEEVE
# B16: GBRAP_184_5109 (protein)
# chain: KVLEREIEVKNEEELKEKLEEVIEEAKKEKATVIVIVNVENLTPEMAKTIMEAAKKIKDAGAPEVLVEIVSPNLTDEVIDTIVNTAKELGIDNVVLAREE
# B17: GBRAP_78_6628 (protein)
# chain: EVEELVDKARELVSEAATLATKQEGEEYIDILGELIDALSDLEEAEEEGFDLELLEEAREHLERAKELLKELNDEELEPILKKVEEALELLKEAIELLKK
# B18: GBRAP_52_5956 (protein)
# chain: MEEEMRALAERLVALVEAGDLEGARALFREFVAAHDEATLERFAEVWAEVARAAPPERHDAVWAAAELAAEVLEEEGRDERLAGLLLARVAAALYEKELA
# B19: GBRAP_11_2615 (protein)
# chain: KKEALEKAAKLAKKLAEVVEKLIEEGVDNEELRKEAEKLLKELTKLVKEELDEADQTDVEVMEELWKKAKEDPENAEEYAKQLLAAARVLEGNYLLDIEE
# B20: GBRAP_11_2783 (protein)
# chain: KKEKLKEIAELAEKLAEVIEKLLKEGVDNEELIKEAEELLEELKKLVEEHEDKSLQKLAEIAEELWKEFLEDKENAEKYAQELLAAVRVLLGEVLLLLEE
# B21: GBRAP_35_5581 (protein)
# chain: DDVEIILETLRDYADAAIEALEGEDLEEAIRMTRAFVRAAERAIEDLKDNKEALEEIERLLERVLKAAKKYRADNPEMQELIKRIEELAERAKKLAKEIE
# B22: GBRAP_186_5393 (protein)
# chain: EENEEEEDEILEELEERHDIVIVVYLDPEKSLEEKKAIMERDTEAAAALARETGKRVALVFRVVANEEELEELKKHVEELNERALAETGVEVRLIGFVKE
# B23: GBRAP_35_5574 (protein)
# chain: DFDEEVTEMLLATIDDLTLAVPDVDVETAVAMANSIVKAARALGEELKDKPELLERIADALGRLRDAVEANYADDPEAQATAAAIDAAIAELRARAAAAK
# B24: GBRAP_137_3658 (protein)
# chain: KKIKVEVKLEGNFAEVTIKAEDEETALEAADIAIEVARETGVAAAISVDLEEKEVYVDLIGEPEQLRAFVERLVERLSKKYDVDLTIEEDGKVTKERRKK
# B25: GBRAP_52_6223 (protein)
# chain: AAARAEALARRVLETVKTEGVEAAVALLEELARTESPELVAAVLEALVALLKSESYETAEAVLDALLAAEDALEAAGVPALTVEDAIAAAAAVAVELKKK
# B26: GBRAP_35_5590 (protein)
# chain: EIEQIILDTLEDYAEATIYAIKEESLETAIKMLEAFIRTARLAIKDLKDNLEALKKIEELIEKVIEEVKKYRSDDPKVQELLKELEELAKEAKEQAKKVE
# B27: GBRAP_128_3510 (protein)
# chain: SMEEAVAKAKELMEAIAKADEEEARKLTEELVALIDSVDDETAEAIADVVEEQLPKLSKEKLEVVADTLLELRPTVDPYKANLLAGIAVEALNKAEELEE
# B28: GBRAP_35_5538 (protein)
# chain: DSDTEEVEMIVNTMKDLVDALPDVSPEDQAKLAEHLIRLAKDLVKDKPKNLKLIKEAIENLERAIKIIEESDLPEETKEKLIKELEEVKKELEKILKENK
# B29: GBRAP_39_5655 (protein)
# chain: EEEEENELRFEYLVALAEKERVEKNISDEELIERGKKILKEMAKEHPEIKELVEKALELMEKGDEETKLAIVGIALRYERGEPIEEIKEDLESFLKYLES
# Target: GABARAP, O95166
# Sequence (O95166 whole entry, the tested form may be a part): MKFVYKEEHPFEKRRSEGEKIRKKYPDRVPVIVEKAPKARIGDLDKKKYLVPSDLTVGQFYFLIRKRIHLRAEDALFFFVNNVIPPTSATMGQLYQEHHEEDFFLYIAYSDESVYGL
# Assay: median log2 fold change of GCK-ALFA target abundance (FLAG IP / Myc IP barcode read proportion) (log2 ratio); each designed protein is fused to an ALFA-tag nanobody in HEK293 cells to bring the named protein to FLAG-tagged glucokinase (GCK); Myc marks an untargeted standard; higher = target protein stabilised (more abundant)
# Details: target protein: 3xFLAG-MCP-GCK-ALFA reporter; HEK293 landing pad (RPLP)
# Procedure, shortened: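 HEK293 landing-pad cells received a recombined binder library fused to the ALFA nanobody and were induced with 2 μg mL^−1 doxycycline, then transfected with a plasmid encoding a FLAG-tagged target and a Myc-tagged standard. Lysates were collected after 48 h for anti-FLAG and anti-Myc immunoprecipitation, and the circular RNA barcodes were reverse transcribed, amplified and sequenced. Target abundance for each binder is the median log2 ratio of FLAG to Myc barcode read proportions. Barcodes had to reach a proportion of at least 10^−7 in both replicates, each binder needed at least 3 barcodes per replicate, a pseudocount of 10^−6 was applied, and the two replicates were pooled.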
row,Binder,median log2 fold change
1,B1,0.173
2,B2,0.0545
3,B3,-0.0825
4,B4,0.13
5,B5,-0.051
6,B6,0.146
7,B7,0.0705
8,B8,0.147
9,B9,-0.0601
10,B10,0.372
11,B11,-0.215
12,B12,-0.0559
13,B13,-0.166
14,B14,-0.257
15,B15,0.255
16,B16,0.179
17,B17,-0.0139
18,B18,0.0382
19,B19,0.283
20,B20,0.241
21,B21,0.301
22,B22,-0.0103
23,B23,-0.468
24,B24,-0.251
25,B25,0.0932
26,B26,0.0261
27,B27,0.00598
28,B28,0.273
29,B29,0.24
